Data as given in the supplement of paper PMC11417369.
This is one part of the list.

Each sequence was assayed on PF3D7_0420300 AP2 domain 1 (GST-tagged) (assay: gcPBM binding intensity (ln(normalized median fluorescence intensity)); higher = stronger DNA binding).
Procedure, shortened: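 Binding intensity is defined as the maximum Masliner-normalised natural-log median intensity across replicate spots for either probe orientation. It was measured on an Agilent 4 × 180k array of primer-extended double-stranded 36-bp intergenic genomic probes and negative controls, to which GST-tagged P. falciparum DNA-binding domains made in E. coli were applied for 1 h in 1× PBS with 1% milk, 0.2 mg/ml BSA, 0.5% salmon testes DNA and 0.03% Triton X-100. Detection was by Alexa488 anti-GST antibody and scanning at 488 nm.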

Sequence | gcPBM binding intensity (ln)
TTATTTATTTAGTAGTGTACTTTTTATATTTATAAT [XGTACX_site5978] | 9.37
AAAAAAAAAAAATACACACACATATATATATATATA [CACACA_site2224] | 9.65
TATGTAATAAATAGTACACACACACCGATATATATA [CACACA_site8389] | 10.1
TATAATAATATTATAGTGCATATTATTTATATATAA [GTGCAC_site9820] | 8.98
ATTTTTATTTTCTTTACACACCACATAACTTTTTTT [CACACA_site7826] | 9.75
ATATATATATATATATGTACATATATCTACATATAT [XGTACX_site7588] | 9.11
ACTTTTTAATATTTTAGTACACAGTAATTCTTACTA [XGTACX_site1425] | 9.22
TTTAATATGAATTTATGTACATATATATATATATAT [XGTACX_site6337] | 9.09
TATATTAAAAAAAAATGTACATATATATAATATATA [XGTACX_site1935] | 9.19
ATACGTATATAATATACATGCATATATAGCACATAC [TGCATGCA_site376] | 9.37
ATAAAAAAAAAAAAAAATGAAGCATCACCGTGTAAT [XGTACX_negctrl_site288] | 9.46
CACGAAAAAAAAAAATGTACATAAAAATATGATACA [XGTACX_site2536] | 9.31
GAAAGAGAAATATATACACACATATTTATATTTTTA [CACACA_site2066] | 9.33
AAAAAAAAAAAAAAAAAAAAAGGACGGATGGATGGA [GTGCAC_negctrl_site527] | 9.48
TCTCATTTCAACAACAGTACATATCTATCTGTGTAT [XGTACX_site6897] | 9.16
AAAAAAAAAAAAAATAGTACGTAACTATAATTTCCT [XGTACX_site2457] | 9.06
CTTATACTTCTACATCGTACAAAAGATGGTATAATT [XGTACX_site2698] | 9.08
AAATTATAAGTAAAAAGTACTTAATATATAATAAAC [XGTACX_site6065] | 9.4
TAACTTAAATAATACATACACACATGTACATACAGA [CACACA_site1594] | 9.63
TATAATTTTTTTTGGGTGCTTGGGTAAATTTTATTA | 9.53
AATTATATATTATCATGTACAAATATAGTAATACAA [XGTACX_site6845] | 9.27
TATATAAATGGACACACACACACCTTATAATTATTA [CACACA_site6093] | 10.2
AATGTGTTCATATATGCACACGCATATATATTATTG [CACACA_site9274] | 9.44

Sequence | gcPBM binding intensity (ln)
TTTATAAATTGACACACACACATGTGAACATAAAAA [CACACA_site6978] | 9.75
CCTAATTTTTTTAGTTGTACTTTTTTTTTTTTTTAT [XGTACX_site7948] | 9.34
GCCTATATGTTTAGTTGTACTCCTAATATTATTTGT [XGTACX_site6060] | 9.75
CAAATTATTTCGAGGTGTACTTTTTTATATTATATT [XGTACX_site8309] | 9.56
ATTGATTTTTAATATACACACATAAGTACCACAAAA [CACACA_site339] | 9.6
ACATTAATATAAAGCACACATATATATAATATATAT [CACACA_site508] | 9.45
AAAAATATAAACTGCACACACAAAAAAAAAAGAGAA [CACACA_site1367] | 10.1
TATAACATATTTATATATGACATTATCTATTCATTT [CACACA_negctrl_site864] | 9.18
TTAATATTGTATCCAAGTACACAAATTATTATATTT [XGTACX_site8067] | 9.21
CAATATTATTATATTTGTACACATGCGTATTTTTTA [XGTACX_site4154] | 9.26
CCCGTAAATACAAAAAGTACAAAAGTTCATCTTATA [XGTACX_site1154] | 9.12
TAATAATAATATAAAATACACACCTATTATTTTTAC [CACACA_site4003] | 9.42
CATGATATATAAATATGTACATATATATATATATAT [XGTACX_site1760] | 9.43
ATGTAACACATATTTGGTACAGATAGATAAAAGTAT [XGTACX_site8291] | 9.44
TATATATATATATTCACACATAAAAATAAAATAAAA [CACACA_site4774] | 9.26
GTATAATATATTTATAGTACATAATTATTTATAAAT [XGTACX_site1826] | 9.16
ATATATATATATGTGTGTACTTATTTATTTATTTGT [XGTACX_site549] | 9.8
TTTTCTTAATATTTATGTATATATATAATATGATAT [TGCATGCA_negctrl_site572] | 9.11
TAATAAATCCTATATAGTACATATATGCAAGTATGT [XGTACX_site3955] | 9.24
AAATTTATATAAAACAGTACAATTAAAAAAAAAATA [XGTACX_site8015] | 9.33
GAAACGTTTTTGAGTAGTACACACACAATAAGGATG [XGTACX_site6809] | 9.72
ATATAAATATAAACATGTACATATATATATATATAT [XGTACX_site2824] | 9.25
TTTGTAATAACATATGCATGTTCAAAAAATAAAATA [TGCATGCA_site817] | 8.97

Sequence | gcPBM binding intensity (ln)
ACGTTTTATTTTTATTGTACTCACATTGAAATGAAT [XGTACX_site6094] | 9.54
ATTTTTTTATAAAATTTTTTATATATTAAATATTAT [CACACA_negctrl_site135] | 9.04
AAAATTGTGCTTTCACGGACACAAGATCGAAATAGA [XGTACX_site4068] | 9.13
ATATATTTATACATTTGTACATATACATATTTCTGA [XGTACX_site3982] | 9.2
ATTTTTTTTGTAAAAGTGCATATATATATATATATA | 9.14
ATAGATATACATATCACACATATATATATATATATA [CACACA_site4985] | 9.18
AAATACATATATACATGTACATAAATATATATATAT [XGTACX_site5367] | 9.22
TAAGGTAGTTCTGTATCACACACATATATATATATA [CACACA_site8693] | 9.64
TGAGAAAGCGCATATTGTACTATATATTTTAACCAC [XGTACX_site4098] | 9.27
AATCCATTCTATTTTTTACACACGTATGTAAATATT [CACACA_site8860] | 9.52
AATATATATGGACATGCATGGACATAATAATCTATT [TGCATGCA_site838] | 9.36
GAAAATAATGTTACATGTACGAATATGTAACTATTG [XGTACX_site6833] | 9.22
ATTTATCTATATATATGTACATATTATTTTTGTGGT [XGTACX_site7390] | 9.49
GATATACAATTTAAGTGTACTATAATAAAATATATA [XGTACX_site3013] | 9.05
ATAAAAAAATATAAATGTACATATATATATATATAT [XGTACX_site5620] | 9.15
TATATTAATTCGTTTTGTACACACATAATGAATAAT [XGTACX_site4618] | 9.38
TTTAAAATATTGTATTGTACGCAATAAAAAATACCA [XGTACX_site182] | 9.15
ATTAAATAAAATCATGCACACAATATATATTTTAAG [CACACA_site2495] | 9.4
ATAAGCATCTTTTGTGTGCACATAACAAAAAAAAAA | 9.36
TCTAACATATCTTTAATACACACTTAAAAAAGTACT [CACACA_site652] | 9.15
ATTTTACATATTTGCACACATATATTTATATACATA [CACACA_site854] | 9.77
TTATTTGTTTAATATGCATGCTAAAAGGGTTGATGT [TGCATGCA_site581] | 9.27
GAGTAAAACAAATATACACACCATAAAGTTATAAAA [CACACA_site5008] | 9.66

Sequence | gcPBM binding intensity (ln)
AATATAAAAATGCACACACACAAAAAAAAAAAAAAA [CACACA_site6546] | 9.84
AATTTAAATTCATCACGTACATACGTGAATATACAC [XGTACX_site5220] | 9.14
CATAAAAATGTATCAAGTACACATTTATTTATCCAT [XGTACX_site152] | 9.16
GTATAACACAAGTGAAGTACAGGGGTAAACATTTAT [XGTACX_site3203] | 9.52
TACAGATAAAAGTACACACACACACCGATATATATA [CACACA_site4675] | 10.2
ATAAAAAAATATGTAAACATATATATGTATTTATGT [CACACA_negctrl_site1517] | 9.2
TTAAAATAAAGAGCAGTGCGCATATTTTGTTATTAT [GTGCAC_site9753] | 9.22
TTTTTATATTTTATTAGTACTTATTATATATATAAT [XGTACX_site4900] | 9.26
TTTTTTTTTAAAGAAAATAAAAATATGTACTTGACA [CACACA_negctrl_site1113] | 8.63
AAACAATTTTTATTTTGTACATAACAATATATTTAT [XGTACX_site1375] | 9.15
ATTCGTGAACTAGCCAAACACACGAAAAAAAAAAAA [CACACA_site3342] | 9.11
ATGTAACATAGGAAATGTACATATAAATATAATTTA [XGTACX_site6452] | 9.16
TTTTTTTTTGGGGGTGCATGCAAGACATATATTTAA [TGCATGCA_site228] | 9.35
CATACATATATATATACACACATACATATATATACA [CACACA_site8165] | 9.65
TTTTTTTTTTGATGTTGTACATATATATTATATAAT [XGTACX_site2765] | 9.21
GCTATTTATTTATATTGTACTTTTTTTTTTTTTTTT [XGTACX_site3624] | 9.59
TATTTTGTTCTTTCCACACACAAATACCTATCTTGT [CACACA_site7833] | 9.81
ACAAAATTGATATATGCACACATATATATATTAAAT [CACACA_site8152] | 9.51
GTAGGTTTATATTGTAGTACATACAAACGTTAACAA [XGTACX_site5476] | 9.14
TTTATTTATTATTAAAGTACTAAAATATATTATTAT [XGTACX_site4887] | 9.06
